This is one part of the list.
biological target: T1, OsWOX13 (Oryza sativa, UniProt Q5QMM3 1-267); assay: protein-binding microarray (RPBM); PBS, 2% BSA, 51.3 ng/ul salmon testes DNA, 50 uM zinc acetate, 200 nM TF, 25 C, 1 h; high values mean tight binding; details: protein: recombinant; tags: N-terminal polyhistidine and DsRed monomer fusion (pET32a); label: CyDye5-dUTP incorporated in the synthesized complementary strand; 3' TTTTT single-stranded linker to array surface; dsDNA, one strand shown
T1 sequence: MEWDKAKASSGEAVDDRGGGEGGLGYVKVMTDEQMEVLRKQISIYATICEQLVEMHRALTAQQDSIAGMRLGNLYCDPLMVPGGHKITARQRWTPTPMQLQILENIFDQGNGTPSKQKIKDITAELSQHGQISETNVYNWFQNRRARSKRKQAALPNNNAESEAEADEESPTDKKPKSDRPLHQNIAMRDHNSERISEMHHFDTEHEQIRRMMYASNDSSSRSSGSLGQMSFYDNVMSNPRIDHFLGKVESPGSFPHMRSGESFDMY
In short: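 Binding signal here means per-feature fluorescence intensity in arbitrary units. The values were read on an Axon 4000B scanner after a custom Agilent array, double-stranded by primer extension with Cy5-dUTP, was incubated with 200 nM protein at 25 °C for 1 h in PBS with 2% BSA, salmon testes DNA and 50 µM zinc acetate, then washed. The proteins were transcription factors with an N-terminal polyhistidine tag and DsRed, expressed in E. coli BL21-CodonPlus and purified on Ni–NTA.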

Q: With “ATCTTAACCAATGCTGATTGACCACAGATGTTGCCCTTTCCGGAGTCACCTAGTGCAG” as the sequence, how does the binding signal read?
A: 29900 fluorescence intensity (a.u.)

Q: For “TTAAACAAATAGGAAATTGGCGTTATGGGCTCGCTTACTGCGGAGTCACCTAGTGCAG”, which binding signal is on record?
A: 11700 fluorescence intensity (a.u.)

Q: For “TGACTGCTGACTGATCAGATGCCTCTTTTGAGTAAATTTTCGGAGTCACCTAGTGCAG”, which binding signal is on record?
A: 3170 fluorescence intensity (a.u.)

Q: For “TCTAGTTAGTAATTGAAGTAATGTATACAGTAGCTAGCTGCGGAGTCACCTAGTGCAG”, which binding signal is on record?
A: 12400 fluorescence intensity (a.u.)

Q: Which binding signal does the source give for “CACGCCACAATTACAATTATACTCCACACTCCGGTAGGCGCGGAGTCACCTAGTGCAG” here?
A: 3450 fluorescence intensity (a.u.)

Q: For “ACTAATATGACTTAATTAAACATTATCGACACAACATCCACGGAGTCACCTAGTGCAG”, which binding signal is on record?
A: 20500 fluorescence intensity (a.u.)

Q: “TCAGTAACATTATTGGTTAAATTTTAAATTTTGAATAGGCCGGAGTCACCTAGTGCAG” was tested. Which binding signal did it give?
A: 5870 fluorescence intensity (a.u.)

Q: Which binding signal does the source give for “CAGCGTGATTTCCAGAATCCCTTTGTCTTGTTGAGAGATTCGGAGTCACCTAGTGCAG” here?
A: 4280 fluorescence intensity (a.u.)

Q: How did the binding signal turn out when “TCATTAATTAACATTTAAATTTACTTTCATATAATTGTGACGGAGTCACCTAGTGCAG” was run?
A: 37400 fluorescence intensity (a.u.)

Q: For “AGGCGAGTTGGTGATTGACTTGCCAGTTCAATCAACAATTCGGAGTCACCTAGTGCAG”, which binding signal is on record?
A: 19700 fluorescence intensity (a.u.)

Q: How did the binding signal turn out when “GAAACCTGATGATGCTTGATGGAAATCCATTAGACAGCGTCGGAGTCACCTAGTGCAG” was run?
A: 8850 fluorescence intensity (a.u.)

Q: For “CCTTGTATCTAATAATTACCGTCCTGTAACGTAATCCGGGCGGAGTCACCTAGTGCAG”, which binding signal is on record?
A: 4600 fluorescence intensity (a.u.)

Q: “CAGTGTTAACGGAAGTGATTTAGATGAATATTAAGTATGGCGGAGTCACCTAGTGCAG” was tested. Which binding signal did it give?
A: 5290 fluorescence intensity (a.u.)

Q: For “TTTGATTTTAATATCTTGCACATAATTATTCGTAGGGTTACGGAGTCACCTAGTGCAG”, which binding signal is on record?
A: 29400 fluorescence intensity (a.u.)

Q: With “TAGAACTAGAATAAGCATCAATCAATCTAAGCAAGTCAGCCGGAGTCACCTAGTGCAG” as the sequence, how does the binding signal read?
A: 7560 fluorescence intensity (a.u.)

Q: For “CATTGATTTCGAGCTATGCCAGGTTCGGGGATCTTGATGTCGGAGTCACCTAGTGCAG”, which binding signal is on record?
A: 5690 fluorescence intensity (a.u.)

Q: With “TGGATGATGATGAGCAACAGAGACGAGCACCAGAGCTGCACGGAGTCACCTAGTGCAG” as the sequence, how does the binding signal read?
A: 5210 fluorescence intensity (a.u.)

Q: For “TTGTGAGTCAATTACATTGGTTTTAACAGTTAAGGATCAACGGAGTCACCTAGTGCAG”, which binding signal is on record?
A: 6900 fluorescence intensity (a.u.)

Q: Which binding signal does the source give for “GCCGATTGATGATCCCGCATCATTGGAGCTAACAATCTTCCGGAGTCACCTAGTGCAG” here?
A: 28800 fluorescence intensity (a.u.)

Q: How did the binding signal turn out when “ATAAATTTAACTCTAAGAGTTGGGTTTGGAATAGAGTTGTCGGAGTCACCTAGTGCAG” was run?
A: 5850 fluorescence intensity (a.u.)

Q: “TACATGATGACATAACTATCGAGTTAGTCCAATCCAATTTCGGAGTCACCTAGTGCAG” was tested. Which binding signal did it give?
A: 5020 fluorescence intensity (a.u.)

Q: With “ATGATTGATTGTAAATTAGGTTGAATAATTGATATATACTCGGAGTCACCTAGTGCAG” as the sequence, how does the binding signal read?
A: 54800 fluorescence intensity (a.u.)

Q: How did the binding signal turn out when “GGTTCTTTAATTATCCATCTCTATCTACGAACTTGCAAGACGGAGTCACCTAGTGCAG” was run?
A: 10400 fluorescence intensity (a.u.)

Q: “TTAAATTTAGGACCGAATTACACGTACGTCAGGCGCGCTCCGGAGTCACCTAGTGCAG” was tested. Which binding signal did it give?
A: 4510 fluorescence intensity (a.u.)

Q: Which binding signal does the source give for “CTGAATAATTATGCCAGTAATTCGCTCTAGTCCAAACCATCGGAGTCACCTAGTGCAG” here?
A: 9420 fluorescence intensity (a.u.)

Q: How did the binding signal turn out when “GACTTAACTGTCCGTGAAACATTGTCCATCCCATCCCATCCGGAGTCACCTAGTGCAG” was run?
A: 3770 fluorescence intensity (a.u.)

Q: How did the binding signal turn out when “AGATGATGATGGCCTGGAATTACTAGGCAAGGGGAGCAACCGGAGTCACCTAGTGCAG” was run?
A: 4060 fluorescence intensity (a.u.)

Q: Which binding signal does the source give for “CACCCTAAACCCAAATTGATATACGTCTCTTTTCGAAACACGGAGTCACCTAGTGCAG” here?
A: 7850 fluorescence intensity (a.u.)

Q: With “CTTTTAGATTGCTAGAACATATATATATATATATATAAATCGGAGTCACCTAGTGCAG” as the sequence, how does the binding signal read?
A: 3610 fluorescence intensity (a.u.)

Q: How did the binding signal turn out when “GTAGATTAAGCCTGATTTGGAAGAGCATTGAATCAGTTTACGGAGTCACCTAGTGCAG” was run?
A: 17600 fluorescence intensity (a.u.)

Q: How did the binding signal turn out when “TACATTTTGACATTTAATTGTCAGCATATACAAACAGTTACGGAGTCACCTAGTGCAG” was run?
A: 4720 fluorescence intensity (a.u.)

Q: “TGTTAGACTATGCCATCAATTGTAATTGTTGGTTCTGATGCGGAGTCACCTAGTGCAG” was tested. Which binding signal did it give?
A: 4250 fluorescence intensity (a.u.)

Q: Which binding signal does the source give for “GATCCTTTGACAGCTGTTTTGACAATTTCTTAAACTACGACGGAGTCACCTAGTGCAG” here?
A: 9260 fluorescence intensity (a.u.)

Q: For “AACCATAGTTTGATCAGTTTAATTTATGCACATATCTTTTCGGAGTCACCTAGTGCAG”, which binding signal is on record?
A: 3720 fluorescence intensity (a.u.)

Q: How did the binding signal turn out when “AATGATGGATTTTATGTGTTCCCCAGATGTCGATGCGCCACGGAGTCACCTAGTGCAG” was run?
A: 24200 fluorescence intensity (a.u.)

Q: How did the binding signal turn out when “GCTGATTAGCCAAAGCTGAATTCAGCCAAACTTCAATGTACGGAGTCACCTAGTGCAG” was run?
A: 26600 fluorescence intensity (a.u.)

Q: For “AAATGATGTATAGTTAGGATTGGAGTGGTACTTGAAGGCCCGGAGTCACCTAGTGCAG”, which binding signal is on record?
A: 3520 fluorescence intensity (a.u.)

Q: For “TGCTGATGGAACTAGGGGAGGCCTCTTCACGGCTTGGAGGCGGAGTCACCTAGTGCAG”, which binding signal is on record?
A: 3900 fluorescence intensity (a.u.)

Q: How did the binding signal turn out when “ACAGTTCAATCACAGCAAGAAACTCCTTGTACCCTGATATCGGAGTCACCTAGTGCAG” was run?
A: 15800 fluorescence intensity (a.u.)

Q: Which binding signal does the source give for “TGTAGATGATTTTGATCTTGATTTTGCACGTATGCATAACCGGAGTCACCTAGTGCAG” here?
A: 19200 fluorescence intensity (a.u.)

Q: With “AAATTGGATGGAAATTGACAGATAGACCAGCCAAACGATCCGGAGTCACCTAGTGCAG” as the sequence, how does the binding signal read?
A: 26400 fluorescence intensity (a.u.)

Q: For “GCTAATTTAGATTGCTGTCAAAATAAACCTTTCTAAAATTCGGAGTCACCTAGTGCAG”, which binding signal is on record?
A: 24000 fluorescence intensity (a.u.)

From publication PMC7819943, “Rice protein-binding microarrays: a tool to detect cis-acting elements near promoter regions in rice”
